Results published in PubChem BioAssay AID588855 (National Center for Advancing Translational Sciences (NCATS), 2011).
Several values for one entry are separate records, joined by “and”; a condition that tells them apart may be missing. Equal entries are not always repeated. In all, about 410,000 compounds went through this assay and about 5,000 (1.2%) were called active. This list was built around the results that the source calls inconclusive (neither active nor inactive); the mix of calls is not that of the screen. Calls come from the whole dose curve; as a rule, active = well fitted inhibition curve with a large enough effect; inconclusive = small, poorly fitted or top-dose-only effect; inactive = no such curve, though single readings can be large or run the other way. A potency beside an inconclusive call is a rough fit, not a confirmed value.

Assay: qHTS for Inhibitors of TGF-b; note: nearly all actives have a fitted effect of over 65% in size
Settings: HepG2 CAGA-GFP TGF-b/SMAD3 reporter, GFP fluorescence, 18 h, TGF-beta stimulated, 500 pg/mL final; series mostly up to 46.1 µM
Outline: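 HEPG2 CAGA-GFP, 1000 cells/well; 2 h settle, 37 C; cpd via pin tool; TGF-b 500 pg/mL final; 18 h, 37 C; GFP imaging ex488/em500-530; %Activity normalised to -TGF-b and +DMSO controls; CRC fit, curve class.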
Potency is the fitted concentration of half-maximal effect; tags give direction and shape of the fitted curve.

| Compound | Potency |
| --- | --- |
| COc1ccc2cc3c(N)nn(C(=O)c4ccccc4Cl)c3nc2c1 | inconclusive: 14.1 µM [inhibitor, single point] and inconclusive: 35.5 µM [inhibitor, single point] |
| Cc1ccc2nc3sc(C(=O)N4CCCc5ccccc54)c(N)c3cc2c1 | inactive |
| COc1ccc(NC(=O)c2nc[nH]c2C(=O)N2CCC(C)CC2)cc1 | inconclusive: 6.31 µM [inhibitor, single point] |
| O=C(NCc1ccccc1)c1ccc2c(c1)CCN2S(=O)(=O)c1ccc(Cl)cc1 | inconclusive: 25.1 µM [inhibitor, partial curve, poor fit] |
| COc1ccc(-c2sc3ccccc3c2-c2ccc(OCCN(C)C)cc2)cc1 | inconclusive: 35.5 µM [inhibitor, single point] |
| Cc1ccc(C)c(NC(=O)Cn2cc(S(=O)(=O)Cc3cccc(Cl)c3)c3ccccc32)c1 | inactive |
| CCc1ccc(NC(=O)CN2C(=O)CSc3ccc(S(=O)(=O)N(C)C)cc32)cc1 | inconclusive: 0.1 µM [inhibitor, full curve, poor fit] |
| CCOC(=O)c1c(NC(=O)C2COc3ccccc3O2)sc(C(C)=O)c1C (stereo unspecified) | inconclusive: 1.12 µM [inhibitor, full curve, poor fit] |
| Cc1ccc(C)c(C(=O)COc2ccccc2[N+](=O)[O-])c1 | inconclusive: 20 µM [inhibitor, partial curve, poor fit] |
| CCOC(=O)C1CCN(C(c2ccccn2)c2c(C)[nH]c3ccccc23)CC1 (stereo unspecified) | inconclusive: 35.5 µM [inhibitor, single point] |
| CCCc1cc(=O)oc2cc(OCc3nn[nH]n3)ccc12 | inconclusive: 0.316 µM [inhibitor, full curve, poor fit] |
| CC(=O)c1c(C)[nH]c(C(=O)OCC(=O)Nc2ccc(Cl)c(S(=O)(=O)N(C)C)c2)c1C | inconclusive: 10 µM [inhibitor, partial curve, poor fit] |
| Nc1ccccc1Nc1ccccc1 | inconclusive: 20 µM [inhibitor, single point] |
| CC1CCCN(CCCNC(=O)c2ccc3c(c2)N(Cc2ccc(Cl)cc2)C(=O)c2ccccc2S3(=O)=O)C1 (stereo unspecified) | inconclusive: 8.91 µM [inhibitor, partial curve] |
| Cc1cc(C)nc(Sc2nc(Cl)nc(N(c3ccccc3)c3ccccc3)n2)n1 | inconclusive: 11.2 µM [inhibitor, partial curve, poor fit] |
| CCC(C)Nc1c([N+](=O)[O-])cc(C)cc1[N+](=O)[O-] (stereo unspecified) | inconclusive: 35.5 µM [inhibitor, single point] |
| CCOC(=O)c1c(NC(=O)CSc2cn(CCNC(=O)c3ccc(OC)cc3)c3ccccc23)sc2c1CCCC2 | inconclusive: 7.08 µM [inhibitor, full curve] |
| CCN1CCCC(OC(=O)c2cc(-c3ccccc3Cl)nc3ccccc23)C1 (stereo unspecified) | inconclusive: 14.1 µM [inhibitor, single point] |
| CCc1ccc(/C=C/C(=O)c2c(C)cc(C)[nH]c2=O)cc1 | inconclusive: 35.5 µM [inhibitor, single point] |
| Cc1ccc(Nc2nc(Cl)c(C=O)s2)cc1Cl | inactive |
| CCCN1CCN(C(=O)Cn2c(-c3cccs3)cc3cc(F)ccc32)CC1 | inconclusive: 17.8 µM [inhibitor, partial curve, poor fit] |

| Compound | Potency |
| --- | --- |
| Fc1cccc(NC(=S)NCc2ccccc2Cl)c1 | inconclusive: 22.4 µM [inhibitor, single point] |
| Cc1cccc(Nc2nc(N)c([N+](=O)[O-])c(N3CCCC(C)C3)n2)c1 (stereo unspecified) | inconclusive: 17.8 µM [inhibitor, partial curve, poor fit] |
| O=C(Nc1ccc(OC(F)(F)F)cc1)Nc1cccc([N+](=O)[O-])c1 | inconclusive: 6.31 µM [inhibitor, full curve, poor fit] |
| COc1ccccc1CCC(=O)N(C)CC(=O)Nc1ccc(Cl)c(C(F)(F)F)c1 | active: 11.2 µM |
| CC(C)c1ccc(NC(=O)CN2C(=O)NC(Cc3c[nH]c4ccccc34)C2=O)cc1 (stereo unspecified) | inconclusive: 15.8 µM [inhibitor, single point] |
| Cc1cccc(CCNC(=O)c2cc3c(s2)-c2c(C)cccc2OC3)c1 | inactive |
| COc1cc(NC(=O)Cc2nn(C)c(=O)c3ccccc23)cc(OC)c1 | inconclusive: 17.8 µM [inhibitor, single point] |
| COc1ccc(S(=O)(=O)N(C)C[C@H]2Oc3c(NC(=O)Nc4c(C)noc4C)cccc3C(=O)N([C@@H](C)CO)C[C@H]2C)cc1 | inactive |
| CCOc1ccc2nc(NC(=O)C(NS(=O)(=O)c3cccc4nsnc34)C(C)C)sc2c1 (stereo unspecified) | inconclusive: 35.5 µM [inhibitor, single point] |
| CCC(C)n1c(SCc2ccccc2)nc2ccsc2c1=O (stereo unspecified) | inconclusive: 28.2 µM [inhibitor, single point] |
| CCOC(=O)C1=CCN(S(=O)(=O)c2ccccc2Br)C1c1ccc(Cl)c(Cl)c1 (stereo unspecified) | inconclusive: 12.6 µM [inhibitor, partial curve, poor fit] |
| COc1ccc(NC(=O)C(NC(C)=O)C(=O)NCc2ccc(F)cc2)cc1 (stereo unspecified) | inconclusive: 0.316 µM [inhibitor, full curve, poor fit] |
| Cc1nc(SCc2nc3cc(Cl)c(F)cc3[nH]2)c2oc3ccccc3c2n1 | inconclusive: 15.8 µM [inhibitor, partial curve, poor fit] |
| CCOC(=O)c1cnc2c(ccc3ccccc32)c1NCCO | inconclusive: 3.16 µM [inhibitor, single point] |
| CCc1ccc(C2CC(c3ccc(Cl)cc3)=NNC2=O)cc1 (stereo unspecified) | inactive |
| C[C@@H]1NC(=O)N[C@@H]1CCCCCC(=O)O | inactive |
| COc1ccc(N2CCN(C(=O)c3cccc(NC(=O)c4ccco4)c3)CC2)cc1 | inactive |
| CCOC(=O)[C@@H]1[C@H]2COc3ccc(Br)cc3[C@@H]2N2C(=O)N(c3ccc(Br)cc3)C(=O)[C@]12C | active: 7.08 µM |
| O=C(c1cccc(S(=O)(=O)N2CCCc3ccccc32)c1)N1CCN(c2ccccc2)CC1 | inconclusive: 12.6 µM [inhibitor, partial curve, poor fit] |
| COc1ccc(Cc2n[nH]c(=S)n2NC(=O)Nc2ccc(Cl)c(Cl)c2)cc1 | inconclusive: 12.6 µM [inhibitor, partial curve, poor fit] |
| C=CCSc1n[nH]c(-c2ccc(OCCCC)cc2)n1 | inconclusive: 28.2 µM [inhibitor, single point] |

| Compound | Potency |
| --- | --- |
| O=c1cc(NCCCO)c2ccccc2o1 | inactive |
| O=c1[nH]c(/C=C/c2ccccc2F)nc2ccccc12 | inactive |
| Cc1nn(C(C)C(=O)NCc2ccccc2F)c(=O)c2nn(-c3ccccc3)c(C)c12 (stereo unspecified) | inactive |
| CCOc1ccc(N2C(=O)c3[nH]nc(-c4ccc(OC)cc4)c3C2c2cccs2)cc1 (stereo unspecified) | inconclusive: 25.1 µM [inhibitor, single point] |
| COc1cccc(NC(=O)CSc2nc3ccccc3c(=O)n2Cc2cccs2)c1 | inconclusive: 3.98 µM [inhibitor, full curve, poor fit] |
| COc1ccc(S(=O)(=O)N2CCN(Cc3nc4ccc(C)cc4o3)CC2)cc1 | inconclusive: 12.6 µM [inhibitor, partial curve, poor fit] |
| CC(C)[C@H](NS(=O)(=O)c1ccccc1)C(=O)OCC(=O)NCc1ccc2c(c1)OCO2 | inactive |
| COc1ccc(/C=C\C(=O)O[C@@H]2C(O)C(O[C@@H]3OC(C)[C@H](O[C@@H]4OCC(O[C@H]5O[C@H](CO)[C@@H](O)C(O)C5O)C(O)C4O)C(O)C3O)[C@H](OC(=O)[C@]34CCC(C)(C)C[C@@H]3C3=CCC5[C@@]6(C)CC(O)C(O[C@@H]7OC(CO)C(O)[C@H](O)[C@H]7O)[C@@](C)(C(=O)O)C6CC[C@@]5(C)[C@]3(CO)CC4)O[C@H]2C)cc1 (stereo partly specified) | inconclusive: 17.8 µM [inhibitor, partial curve, poor fit] |
| O=c1[nH]c2ccccc2nc1C(Nc1ccccc1)c1ccccc1 (stereo unspecified) | inconclusive: 3.98 µM [inhibitor, single point] |
| Cc1ccc(C)c(Nc2nnc(-c3ccc(C)c(S(=O)(=O)NCC4CCCO4)c3)c3ccccc23)c1 (stereo unspecified) | inconclusive: 35.5 µM [inhibitor, single point] |
| COc1ccc(-c2c(C)c3ccc(O)c(CN4CCCC(C)C4)c3oc2=O)cc1OC (stereo unspecified) | inactive |
| O=C(CSc1nnc(CNC(=O)C23CC4CC(CC(C4)C2)C3)n1-c1ccccc1)Nc1ccc(F)cc1 | inconclusive: 20 µM [inhibitor, single point] |
| COCCCNC(=O)c1ccc2c3c(onc13)-c1ccccc1C2=O | active: 3.16 µM |
| O=C(CCS(=O)(=O)c1ccccc1)Nc1nc2cc3c(cc2s1)OCCO3 | active: 12.6 µM |
| O=C1CCc2cc(S(=O)(=O)NC(C(=O)Nc3cccc(F)c3)c3ccccc3)ccc2N1 (stereo unspecified) | inconclusive: 35.5 µM [inhibitor, single point] |
| C[C@H](OC(=O)c1[nH]cnc1C(=O)N1CCN(C(=O)OC(C)(C)C)CC1)c1ccccc1 | inactive |
| CCCCOc1ncnc2c1[nH]c1ccccc12 | inactive |
| COCCn1c(=O)[nH]c2cc(C(=O)Nc3nnc(C)s3)ccc21 | inconclusive: 2.51 µM [inhibitor, partial curve, poor fit] |
| O=C(c1ccc(=O)n(Cc2ccccc2)n1)N1CCN(C/C=C/c2ccccc2)CC1 | inconclusive: 17.8 µM [inhibitor, partial curve, poor fit] |
